In PubChem BioAssay (Tox21):
Several values for one entry are separate records, joined by “and”; a condition that tells them apart may be missing. Equal entries are not always repeated. The inconclusive results got no clear call from the source; some entries with a clear call stand among them for comparison. Potencies of inconclusive entries are doubtful fits and often do not repeat. Activity calls are given as the source filed them. Calls come from the whole dose curve; as a rule, active = well fitted cell-killing curve with a large enough effect in the repeat runs; inconclusive = weak or mixed curves, or effect the other way; inactive = no such curve, though single readings can be large or run the other way.

Assay: Caspase-3/7 induction in CHO-K1 cells by small molecules, qHTS cell viability counter screen (AID 1346979); note: nearly all actives have a fitted effect of over 35% in size
Settings: CellTiter-Fluor fluorescence, 17 h; series mostly up to 92.4 µM; activity change, negative = cytotoxicity: at the top concentration
In short: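 To flag cytotoxic compounds, treated CHO-K1 wild-type cells were given CellTiter-Fluor at 16hr and read fluorescently after 1hr at 37C; the caspase-3/7 luminescence was measured in these same wells.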
% is set by controls: 0 for no effect and ±100 for the full control effect; potency is the fitted concentration of half-maximal effect; tags give direction and shape of the fitted curve.

Compound	Potency	activity change, negative = cytotoxicity
CN(C)N=O	inconclusive: 30.5 µM [rising, partial curve, poor fit]	
Nc1ccccc1C(=O)Oc1ccc2ccccc2c1	inconclusive: 68.6 µM [cytotoxic, single point]	
Oc1ccccc1-c1ccccc1	inactive	
O=[N+]([O-])c1ccc(Oc2ccc(Cl)cc2Cl)cc1	inconclusive: 77.4 µM [cytotoxic, single point]	
C[C@]12CCC(=O)C(O)=C1CC[C@@H]1[C@@H]2CC[C@]2(C)C(=O)CC[C@@H]12	inconclusive: 61.1 µM [cytotoxic, single point]	
Nc1cc(Cl)cc(C(=O)O)c1Cl	inactive	
NC(=O)C(Cl)(Cl)Cl		inactive: 3.84%
Nc1ccc(Br)cc1	inactive	
O=C(NC(=O)c1c(F)cccc1F)Nc1cc(Cl)c(OC(F)(F)C(F)C(F)(F)F)cc1Cl (centres undefined)	inconclusive: 30.6 µM [cytotoxic, partial curve, poor fit]	
CC(c1ccc(O)cc1)c1ccc(O)cc1	inconclusive: 72.1 µM [cytotoxic, single point]	
Cl/C=C/CCl	inconclusive: 15.4 µM [cytotoxic, single point]	
COc1ccc(O)c(C(C)(C)C)c1	inactive	
C[C@]12CC[C@H]3[C@@H](CC[C@@]45O[C@@H]4C(O)=C(C#N)C[C@]35C)[C@@H]1CC[C@@H]2O	inconclusive: 68.6 µM [cytotoxic]	
CCCCOC(=O)COC(=O)c1ccccc1C(=O)OCCCC	inactive	
OCCBr		inactive: 0.432%
CCC(COC(=O)c1cc(OC)c(OC)c(OC)c1)(c1ccccc1)N(C)C (centres undefined)	inconclusive: 29.8 µM [cytotoxic, partial curve]	
Oc1ccccc1Cl	inactive	
CCC(=O)Nc1ccc(Cl)c(Cl)c1	inconclusive: 78.5 µM [cytotoxic, single point] and inconclusive: 68.6 µM [cytotoxic]	
COC(=O)Nc1nc2ccccc2[nH]1	inconclusive: 34.4 µM [cytotoxic, partial curve] and inconclusive: 61.1 µM [cytotoxic, single point]	
O=C(CBr)c1ccc(O)cc1	inconclusive: 68.6 µM [cytotoxic, single point]	

Compound	Potency	activity change, negative = cytotoxicity
COP(=S)(OC)Oc1cc(Cl)c(Cl)cc1Cl	inconclusive: 26.6 µM [rising, partial curve, poor fit]	
SCc1ccco1	inconclusive: 68.6 µM [cytotoxic]	
O=[N+]([O-])c1ccccc1CCl		inactive: -52.1%
C#CCN1C(=O)COc2cc(F)c(N3C(=O)C4=C(CCCC4)C3=O)cc21	inconclusive: 68.6 µM [cytotoxic, single point]	
CCOP(=O)(OCC)SCCSCC	inconclusive: 68.6 µM [cytotoxic, partial curve]	
CCC(C)Nc1c([N+](=O)[O-])cc(C(C)(C)C)cc1[N+](=O)[O-] (centres undefined)	inconclusive: 77 µM [cytotoxic, partial curve, poor fit]	
c1cncc([C@@H]2CCCCN2)c1	inconclusive: 2.73 µM [cytotoxic, single point]	
COP(=S)(Oc1cc(Cl)c(Br)cc1Cl)c1ccccc1 (centres undefined)	inconclusive: 2.43 µM [cytotoxic, single point]	
CCOC(=O)C1(c2ccccc2)CCN(CCC(C#N)(c2ccccc2)c2ccccc2)CC1	inconclusive: 2.98 µM [cytotoxic, single point]	
CC(Cc1ccccc1)NCCn1cnc2c1c(=O)n(C)c(=O)n2C (centres undefined)	inconclusive: 67.7 µM [cytotoxic, single point]	
CC(C)C#N	inconclusive: 65 µM [cytotoxic, single point]	
CC1COC2(c3ccccc3Cl)c3cc(Cl)ccc3NC(=O)CN12 (centres undefined)	inconclusive: 26.6 µM [cytotoxic, single point]	
C#CC(C)(C)NC(=O)c1cc(Cl)cc(Cl)c1	inconclusive: 69.2 µM [cytotoxic, partial curve, poor fit] and inactive	
CON(C)C(=O)Nc1ccc(Cl)c(Cl)c1	inconclusive: 77.3 µM [cytotoxic, single point] and inconclusive: 68.6 µM [cytotoxic, single point]	
Nc1ccccc1	inactive	
Nc1ccc(-c2ccc(N)cc2)cc1	inactive and inconclusive: 27.1 µM [cytotoxic, single point]	
C[C@@H]1CC2=CC(=O)CC[C@@H]2[C@H]2CC[C@@]3(C)[C@@H](CC[C@]3(C)O)[C@@H]21	inconclusive: 33.5 µM [cytotoxic, single point]	
CC(C)(O)C(Cl)(Cl)Cl	inconclusive: 23.7 µM [rising, partial curve]	
CCCCCCCCCCCCCl	inconclusive: 54.5 µM	
